{"source": "PubChem BioAssay (NCATS)", "note": "This list was built around the results that the source calls inconclusive (neither active nor inactive); the mix of calls is not that of the screen. Potencies of inconclusive entries are left out as doubtful fits. Activity calls are given as the source filed them. The call rests on the fitted dose curve; in most records, active means well fitted inhibition curve with a large enough effect; inconclusive means small, poorly fitted or top-dose-only effect; inactive means flat fitted curve, though single readings scatter. On the % scale 0 is the no-effect control and ±100 the full control effect; potency means the concentration at half of the fitted maximal effect; tags describe the fitted curve by direction and shape."}
{"biological_target": "Ubiquitin carboxyl-terminal hydrolase 1 (Homo sapiens) (UniProt O94782)", "sequence (O94782 whole entry, looked up)": "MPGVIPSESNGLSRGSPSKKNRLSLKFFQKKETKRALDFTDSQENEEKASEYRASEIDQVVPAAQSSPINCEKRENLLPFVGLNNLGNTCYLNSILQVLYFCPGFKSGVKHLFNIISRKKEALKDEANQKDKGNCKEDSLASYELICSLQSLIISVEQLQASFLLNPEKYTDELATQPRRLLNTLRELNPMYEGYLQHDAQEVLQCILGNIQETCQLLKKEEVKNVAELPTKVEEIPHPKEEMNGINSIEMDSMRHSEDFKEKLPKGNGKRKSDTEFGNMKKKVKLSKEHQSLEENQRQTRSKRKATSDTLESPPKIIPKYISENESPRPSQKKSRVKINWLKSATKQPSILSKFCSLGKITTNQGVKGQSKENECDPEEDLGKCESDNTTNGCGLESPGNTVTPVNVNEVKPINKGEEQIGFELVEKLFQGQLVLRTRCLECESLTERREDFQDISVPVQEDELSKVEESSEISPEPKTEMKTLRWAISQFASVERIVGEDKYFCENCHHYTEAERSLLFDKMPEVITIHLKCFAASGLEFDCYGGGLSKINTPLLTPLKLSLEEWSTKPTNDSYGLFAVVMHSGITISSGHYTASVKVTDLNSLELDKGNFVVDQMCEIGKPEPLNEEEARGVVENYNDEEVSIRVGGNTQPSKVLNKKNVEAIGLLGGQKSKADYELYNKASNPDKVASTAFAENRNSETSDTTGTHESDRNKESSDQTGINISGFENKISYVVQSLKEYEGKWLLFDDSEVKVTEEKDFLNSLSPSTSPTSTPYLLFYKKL", "assay": "Inhibitors of USP1/UAF1: Pilot qHTS (AID 504865);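 further: rhodamine fluorescence freed from ubiquitin-rhodamine substrate followed over time; nearly all actives have a fitted effect of over 35% in size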; on activity change, negative = inhibition: top concentration of the series differs between compounds", "conditions": "purified USP1/UAF1, Ub-rhodamine cleavage fluorescence; series mostly up to 114 µM; activity change, negative = inhibition: at the top concentration", "procedure,_shortened": "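Kinetic fluorescence assay: 1nM USP1/UAF1, 15 min compound preincubation, then 150nM Ub-Rho; 480/540 nm.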"}
{"smiles": "COc1ccc(-n2c(=O)c(-c3ccccc3)nc3cncnc32)cc1", "activity change, negative = inhibition": "inactive: -8.06% [at 54.9 µM]"}
{"smiles": "CC(C)c1ccc2c(c1)CCC1C(C)(C(N)=O)CCCC21C", "note": "(centres undefined)", "Potency": "inconclusive [inhibitor, partial curve]"}
{"smiles": "CCCC1OC2CC3C4CCC5=CC(=O)C=CC5(C)C4C(O)CC3(C)[C@]2(C(=O)CO)O1", "note": "(some centres undefined)", "activity change, negative = inhibition": "inactive: -3.9%"}
{"smiles": "CC(=O)OC[C@@]1(O)C[C@]23CCC4c5ccoc5CC[C@@]4(C)C2CCC1C3", "note": "(some centres undefined)", "Potency": "inconclusive [inhibitor, full curve, poor fit]"}
{"smiles": "C=CCCCCCCCCCCCc1ccco1", "Potency": "inconclusive [inhibitor, partial curve]"}
{"smiles": "CC(=O)Oc1cc(OC(C)=O)c2c(c1)OC(c1ccc(OC(C)=O)c(OC(C)=O)c1)C(OC(C)=O)C2", "note": "(centres undefined)", "Potency": "inconclusive [inhibitor, partial curve, poor fit]"}
{"smiles": "CC1CCC2[C@](C)(CO)C(O)CC[C@]2(C)C12CCC(CO)(CCO)O2", "note": "(some centres undefined)", "activity change, negative = inhibition": "inactive: -3.19%"}
{"smiles": "COC1=CC(=O)C(C(=O)c2ccccc2)=CC1=O", "Potency": "active: 25.1 µM"}
{"smiles": "COc1ccc(-c2oc3ccccc3c(=O)c2O)cc1OC", "Potency": "inconclusive [inhibitor, full curve, poor fit]"}
{"smiles": "COc1ccc2c(c1OC)C(Cc1ccccc1)N1CCc3cc4c(cc3C1=C2)OCO4", "note": "(centres undefined)", "Potency": "active: 39.8 µM"}
{"smiles": "COc1c(-c2coc3cc4c(cc3c2=O)CC(OC(C)=O)C(C)(C)O4)ccc2c1C=CC(C)(C)O2", "note": "(centres undefined)", "Potency": "inconclusive [inhibitor, full curve, poor fit]"}
{"smiles": "C/C=C(\\C)C(=O)OC1c2c(ccc3ccc(=O)oc23)OC(C)(C)C1OC(C)=O", "note": "(centres undefined)", "Potency": "inconclusive [inhibitor, partial curve, poor fit]"}
{"smiles": "O=C(/C=C/c1ccccc1)c1ccc(O[C@H]2OC(CO)C(O)C(O)C2O)cc1O", "note": "(some centres undefined)", "Potency": "inconclusive [inhibitor, partial curve, poor fit]"}
{"smiles": "COC(=O)C(O)C1C(C)(C)C(OC(C)=O)C2CC3=C4CC(=O)OC(c5ccoc5)[C@]4(C)CCC3[C@@]1(C)C2=O", "note": "(some centres undefined)", "Potency": "inconclusive [inhibitor, partial curve, poor fit]"}
